Measurements reported in article PMC9911399, “Two distinct binding modes provide the RNA-binding protein RbFox with extraordinary sequence specificity”.
Residue numbers refer to the chain shown, from its start. Some of the results follow.

T1: RBFOX1 RRM RbFoxmut (Fox-RRM*) (Homo sapiens, UniProt Q9NWB1 109-208, R118D;E147R;N151S;E152T)
T1 sequence: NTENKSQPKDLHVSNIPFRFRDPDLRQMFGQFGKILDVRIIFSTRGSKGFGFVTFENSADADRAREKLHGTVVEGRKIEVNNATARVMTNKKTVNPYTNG

B1: GCCUAUU (DNA:RNA)
RNA: GGGAGACCGGAAUUCAGAUUGUCCGCCUAUUUUAAAUCCCGUCGUAGCCACCA
DNA 1: CAATCTGAATTCCGGTCTCCC
DNA 2: TGGTGGCTACGACGGGATT
B2: ACGGCAU (DNA:RNA)
RNA: B1 RNA with G25A, C27G, U28G, A29C, U30A
DNA 1: CAATCTGAATTCCGGTCTCCC
DNA 2: TGGTGGCTACGACGGGATT
B3: CUAGCAU (DNA:RNA)
RNA: B1 RNA with G25C, C26U, C27A, U28G, A29C, U30A
DNA 1: CAATCTGAATTCCGGTCTCCC
DNA 2: TGGTGGCTACGACGGGATT
B4: UAUCUGC (DNA:RNA)
RNA: GGGAGACCGGAAUUCAGAUUGUCCUAUCUGCUUAAAUCCCGUCGUAGCCACCA
DNA 1: CAATCTGAATTCCGGTCTCCC
DNA 2: TGGTGGCTACGACGGGATT
B5: GUUCUAA (DNA:RNA)
RNA: B4 RNA with U25G, A26U, G30A, C31A
DNA 1: CAATCTGAATTCCGGTCTCCC
DNA 2: TGGTGGCTACGACGGGATT
B6: CUUCCGA (DNA:RNA)
RNA: B4 RNA with U25C, A26U, U29C, C31A
DNA 1: CAATCTGAATTCCGGTCTCCC
DNA 2: TGGTGGCTACGACGGGATT
B7: UCGCGCA (DNA:RNA)
RNA: B4 RNA with A26C, U27G, U29G, G30C, C31A
DNA 1: CAATCTGAATTCCGGTCTCCC
DNA 2: TGGTGGCTACGACGGGATT
B8: AUUCUGC (DNA:RNA)
RNA: B4 RNA with U25A, A26U
DNA 1: CAATCTGAATTCCGGTCTCCC
DNA 2: TGGTGGCTACGACGGGATT
B9: GACCUCA (DNA:RNA)
RNA: B4 RNA with U25G, U27C, G30C, C31A
DNA 1: CAATCTGAATTCCGGTCTCCC
DNA 2: TGGTGGCTACGACGGGATT
B10: GACUUUU (DNA:RNA)
RNA: B1 RNA with C26A, A29U
DNA 1: CAATCTGAATTCCGGTCTCCC
DNA 2: TGGTGGCTACGACGGGATT
B11: AAGUCUC (DNA:RNA)
RNA: B1 RNA with G25A, C26A, C27G, A29C, U31C
DNA 1: CAATCTGAATTCCGGTCTCCC
DNA 2: TGGTGGCTACGACGGGATT
B12: AGUAUUG (DNA:RNA)
RNA: B4 RNA with U25A, A26G, C28A, G30U, C31G
DNA 1: CAATCTGAATTCCGGTCTCCC
DNA 2: TGGTGGCTACGACGGGATT
B13: UUGGUAG (DNA:RNA)
RNA: B4 RNA with A26U, U27G, C28G, G30A, C31G
DNA 1: CAATCTGAATTCCGGTCTCCC
DNA 2: TGGTGGCTACGACGGGATT
B14: UUCGUUU (DNA:RNA)
RNA: B1 RNA with G25U, C26U, U28G, A29U
DNA 1: CAATCTGAATTCCGGTCTCCC
DNA 2: TGGTGGCTACGACGGGATT
B15: ACACAGA (DNA:RNA)
RNA: B1 RNA with G25A, C27A, U28C, U30G, U31A
DNA 1: CAATCTGAATTCCGGTCTCCC
DNA 2: TGGTGGCTACGACGGGATT
B16: AACAGCG (DNA:RNA)
RNA: B1 RNA with G25A, C26A, U28A, A29G, U30C, U31G
DNA 1: CAATCTGAATTCCGGTCTCCC
DNA 2: TGGTGGCTACGACGGGATT
B17: GGUCCCU (DNA:RNA)
RNA: B1 RNA with C26G, C27U, U28C, A29C, U30C
DNA 1: CAATCTGAATTCCGGTCTCCC
DNA 2: TGGTGGCTACGACGGGATT
B18: CUAGUCA (DNA:RNA)
RNA: B4 RNA with U25C, A26U, U27A, C28G, G30C, C31A
DNA 1: CAATCTGAATTCCGGTCTCCC
DNA 2: TGGTGGCTACGACGGGATT
B19: AUGACAU (DNA:RNA)
RNA: B1 RNA with G25A, C26U, C27G, U28A, A29C, U30A
DNA 1: CAATCTGAATTCCGGTCTCCC
DNA 2: TGGTGGCTACGACGGGATT
B20: GUCAACG (DNA:RNA)
RNA: B1 RNA with C26U, U28A, U30C, U31G
DNA 1: CAATCTGAATTCCGGTCTCCC
DNA 2: TGGTGGCTACGACGGGATT
B21: GAGAUGU (DNA:RNA)
RNA: B4 RNA with U25G, U27G, C28A, C31U
DNA 1: CAATCTGAATTCCGGTCTCCC
DNA 2: TGGTGGCTACGACGGGATT
B22: CCCCGAA (DNA:RNA)
RNA: B1 RNA with G25C, U28C, A29G, U30A, U31A
DNA 1: CAATCTGAATTCCGGTCTCCC
DNA 2: TGGTGGCTACGACGGGATT
B23: GACAGUG (DNA:RNA)
RNA: B1 RNA with C26A, U28A, A29G, U31G
DNA 1: CAATCTGAATTCCGGTCTCCC
DNA 2: TGGTGGCTACGACGGGATT
B24: AGAGUUU (DNA:RNA)
RNA: B1 RNA with G25A, C26G, C27A, U28G, A29U
DNA 1: CAATCTGAATTCCGGTCTCCC
DNA 2: TGGTGGCTACGACGGGATT
B25: GGGGUUC (DNA:RNA)
RNA: B1 RNA with C26G, C27G, U28G, A29U, U31C
DNA 1: CAATCTGAATTCCGGTCTCCC
DNA 2: TGGTGGCTACGACGGGATT
B26: UGAUCUU (DNA:RNA)
RNA: B1 RNA with G25U, C26G, C27A, A29C
DNA 1: CAATCTGAATTCCGGTCTCCC
DNA 2: TGGTGGCTACGACGGGATT
B27: UUCUACG (DNA:RNA)
RNA: B1 RNA with G25U, C26U, U30C, U31G
DNA 1: CAATCTGAATTCCGGTCTCCC
DNA 2: TGGTGGCTACGACGGGATT
B28: CAGGUCC (DNA:RNA)
RNA: B4 RNA with U25C, U27G, C28G, G30C
DNA 1: CAATCTGAATTCCGGTCTCCC
DNA 2: TGGTGGCTACGACGGGATT
B29: UUCAGAA (DNA:RNA)
RNA: B1 RNA with G25U, C26U, U28A, A29G, U30A, U31A
DNA 1: CAATCTGAATTCCGGTCTCCC
DNA 2: TGGTGGCTACGACGGGATT
B30: AUCUUCU (DNA:RNA)
RNA: B1 RNA with G25A, C26U, A29U, U30C
DNA 1: CAATCTGAATTCCGGTCTCCC
DNA 2: TGGTGGCTACGACGGGATT
B31: GAGCGCC (DNA:RNA)
RNA: B4 RNA with U25G, U27G, U29G, G30C
DNA 1: CAATCTGAATTCCGGTCTCCC
DNA 2: TGGTGGCTACGACGGGATT

Each binder was assayed against T1, RBFOX1 RRM RbFoxmut (Fox-RRM*) (assay: EMSA; HiTS-Eq, 1 nM pool, 10 min; buffer printed only for the single-RNA assays: 10 mM Tris pH 7.5, 150 mM NaCl, 3.4 mM EDTA, 0.001% NP-40, 30 C). Details: tags: His6 N-terminal (pET28a); label: 5' 32P.
Method in brief: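 Relative association constants, normalised to the cognate motif, were derived by comparing read counts of each RNA species with those of the control reaction. The RNA sequenced was the free fraction, separated by 8% native PAGE after a 10 min equilibration in 50 µL of 1 nM 5′-radiolabelled RNA (7 randomized nucleotides) with increasing concentrations of purified wild-type or mutant RbFox RRM.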

| Binder | binding signal |
| --- | --- |
| B1 | 0.0856 KA relative to UGCAUGU |
| B2 | 0.0989 KA relative to UGCAUGU |
| B3 | 0.0964 KA relative to UGCAUGU |
| B4 | 0.0778 KA relative to UGCAUGU |
| B5 | 0.0898 KA relative to UGCAUGU |
| B6 | 0.0603 KA relative to UGCAUGU |
| B7 | 0.104 KA relative to UGCAUGU |
| B8 | 0.107 KA relative to UGCAUGU |
| B9 | 0.112 KA relative to UGCAUGU |
| B10 | 0.0852 KA relative to UGCAUGU |
| B11 | 0.0679 KA relative to UGCAUGU |
| B12 | 0.298 KA relative to UGCAUGU |
| B13 | 0.208 KA relative to UGCAUGU |
| B14 | 0.112 KA relative to UGCAUGU |
| B15 | 0.092 KA relative to UGCAUGU |
| B16 | 0.0694 KA relative to UGCAUGU |

| Binder | binding signal |
| --- | --- |
| B17 | 0.043 KA relative to UGCAUGU |
| B18 | 0.0885 KA relative to UGCAUGU |
| B19 | 0.0668 KA relative to UGCAUGU |
| B20 | 0.0916 KA relative to UGCAUGU |
| B21 | 0.15 KA relative to UGCAUGU |
| B22 | 0.136 KA relative to UGCAUGU |
| B23 | 0.0735 KA relative to UGCAUGU |
| B24 | 0.11 KA relative to UGCAUGU |
| B25 | 0.239 KA relative to UGCAUGU |
| B26 | 0.0627 KA relative to UGCAUGU |
| B27 | 0.12 KA relative to UGCAUGU |
| B28 | 0.0887 KA relative to UGCAUGU |
| B29 | 0.0784 KA relative to UGCAUGU |
| B30 | 0.0699 KA relative to UGCAUGU |
| B31 | 0.113 KA relative to UGCAUGU |
